# This sample is rich in variants without activity.
# B1: TPR 5TU (parent)
# chain: GGAUCUUCUCGAUCUAACAAAAAAGACAAAUCUGCCACAAAGCUUGAGAGCAUCUUCGGAUGCAGAGGCGGCAGCCUUCGGUGGCGCGAUAGCGCCAACGUUCUCAACUAUGACACGCAAAACGCGUGCUCCGUUGAAUGGAGUUUAUCAUG
# Variants of: B1
# Assay: polymerase ribozyme fitness, log enrichment relative to wild type (log ratio); higher = more active; in vitro selection for triplet polymerase activity
# Method in brief: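 Each subunit of a heterodimeric triplet polymerase ribozyme was mutagenized into a library by PCR, transcribed, and subjected to one round of in vitro selection, run in triplicate. Libraries were annealed with a biotinylated primer, the partner subunit and triplets, incubated frozen at −7 °C, and extended constructs were gel-excised, captured on streptavidin beads and recovered by RT-PCR. Input and output libraries were sequenced on Illumina, keeping genotypes with ≥10 input reads and ≥1 read per output. Fitness is log base 2 of genotype enrichment divided by wild-type enrichment, from inverse-variance-weighted replicate averages.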
row,Variant,polymerase ribozyme fitness (log ratio)
1,A37C G42U G92A A119U G152A,≤ -4.2
2,U33G U56A G83U C87U U102G A119G,≤ -4.2
3,C35U A49C G80C C93U C108U A137U,≤ -4.2
4,C36A C87G A107C,≤ -4.2
5,U33G G83C,-3.6
6,C35A U61A C103G U104C C116U,≤ -4.2
7,A37C U55A G68U C87U C93U G126A,≤ -4.2
8,A37C A49C C57G C75U A137U G141C,≤ -4.2
9,C36A C54G C57A G86A U139G,≤ -4.2
10,G34A U77G C87A A91C C108U G133A,≤ -4.2
11,G34U G58U G100U,≤ -4.2
12,A37C G48C C76A G86C C95A,≤ -4.2
13,U33G G50C G86C U90A G100C G124U C132G U148A G152U,≤ -4.2
14,C36U A39U G50C A52U A66G G92C,≤ -4.2
15,C35G G62A G68A C69G G71C C72A A73G G74C A91C C114U C132U,≤ -4.2
16,A37C U56A G74A A89U G94U C105U C108A,≤ -4.2
17,C35G G92U C96U U127C U139G U148C A150G,≤ -4.2
18,A37C A89C G140A U145G,≤ -4.2
19,C35A C36U G94C C96U,≤ -4.2
20,C35U U61A A66C C69U,≤ -4.2
21,C36A C96U A98G,≤ -4.2

row,Variant,polymerase ribozyme fitness (log ratio)
1,C35U A47U U55A C87A G143A,≤ -4.2
2,C36A A73G U134C,≤ -4.2
3,C35U G67A G92U,≤ -4.2
4,C35A G74U A89C,≤ -4.2
5,A37C U61A A66G C75U A89G A113U C114U C149A,≤ -4.2
6,U33G G42C A47C A91G G140U U145C,≤ -4.2
7,A37C G50A A73G C93A A106G,≤ -4.2
8,C35A A52C C57U A91U A106U A113C,≤ -4.2
9,C36G G59U C105G,≤ -4.2
10,C35G C43U G81A A91G A115G C118G,≤ -4.2
11,C35A A39C U53A G58A G68A U90C C95A G133A,≤ -4.2
12,C35A A89G C95U,≤ -4.2
13,C35U G46A C54G C96G A107C C118U,≤ -4.2
14,C36G C43A A64G C93A,≤ -4.2
15,G34A A49U C57A U61A C96U A98G A142U U148G,≤ -4.2
16,C35A U45A A66C G70C,≤ -4.2
17,C35G C43U A49C U82G G84C C96A,≤ -4.2
18,C36A C85U,-3.7
19,A37C G46A U61A G74A C93U A122U,≤ -4.2
20,G34A C57A C87U A89U G94U C96A U104A C105G A110U G126U,≤ -4.2
21,G34C U55A U61A U139C,≤ -4.2

row,Variant,polymerase ribozyme fitness (log ratio)
1,C35A C95A A107G G143U,-3.95
2,C35G A97C A138C,≤ -4.2
3,G34U A41G G81A G84U C87A C93A A110G,≤ -4.2
4,C35A G80A U104G U144G,≤ -4.2
5,C35U U56A A91U C116U U134C U146C U148C,≤ -4.2
6,C36A U90C A147U,≤ -4.2
7,G34A C75A C85U C87A U101C A106C A122G,≤ -4.2
8,A37C A60G C93U C96G A97G A107G,≤ -4.2
9,C35U G94U G128C,≤ -4.2
10,C35U A49U G74C G80U C103G,≤ -4.2
11,C35U A47C G80U C87U,-3.9
12,C35A A40G C51U G88A U90A C93A C116G G117C A120C G133C U145C,≤ -4.2
13,U33G G48A C57G G62U C76G G84A A89G G141A,≤ -4.2
14,A37C A49G C87U A115C,-3.32
15,A37C U55G G94A,0.0696
16,A37C A47C G71A C95U C105A U135A G140U,≤ -4.2
17,G34U A40G C69U G80U C99U A107G U139G G140U U148C,≤ -4.2
18,C36A A122U G126A G136C,≤ -4.2
19,A37C C116G,-0.143
20,C35U A89C C99G C132G G136U,≤ -4.2
21,C35A A39C G83A C114A G117A C123G G140U,≤ -4.2

row,Variant,polymerase ribozyme fitness (log ratio)
1,C36A C87U G140C,≤ -4.2
2,C36A U45G G68U C95U,≤ -4.2
3,C35A G70C C95U C99U C118G U146G U151A,≤ -4.2
4,C36U C54A G58A G70A G84A C95A A115U G143U,≤ -4.2
5,C35A G50C G65C,≤ -4.2
6,C35A C85U C99U,≤ -4.2
7,G34A U55A C99U G112A C116U,≤ -4.2
8,U33G G59U A73U U82G C85A C103A A107C,≤ -4.2
9,G34U C35A C36U G50C G67U U82C A97U U101G,≤ -4.2
10,C35G U55A G86A,≤ -4.2
11,C35U A41U C43G C108U U135A G140C,≤ -4.2
12,G34U G92C U101C U144A,≤ -4.2
13,C35U A39C C57A A66U C123A G143U,≤ -4.2
14,C35A U56A C76G U134A,≤ -4.2
15,U33G U77G C85G,≤ -4.2
16,U33G U55G G68A C79A G84U G136U,≤ -4.2
17,C35A A66G C87U U127C,≤ -4.2
18,C36U G80U C87U C93U,≤ -4.2
19,C36A C79U,≤ -4.2
20,A37C G71U G86A A106U C132G U145G,≤ -4.2

# Source: the RNAGym collection of RNA variant scans (doi:10.1073/pnas.2313332121)
